# Measurements reported in paper PMC9911399, “Two distinct binding modes provide the RNA-binding protein RbFox with extraordinary sequence specificity”.
# Positions count from the first letter of the chain named. The list shows a part of the results.
# T1: RBFOX1 RRM RbFoxmut (Fox-RRM*) (Homo sapiens, UniProt Q9NWB1 109-208, R118D;E147R;N151S;E152T)
# T1 sequence: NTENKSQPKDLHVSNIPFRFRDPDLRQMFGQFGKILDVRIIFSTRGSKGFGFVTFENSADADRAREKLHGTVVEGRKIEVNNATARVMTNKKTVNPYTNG
# B1: GUCACCG (DNA:RNA)
# RNA: GGGAGACCGGAAUUCAGAUUGUCCGUCACCGUUAAAUCCCGUCGUAGCCACCA
# DNA 1: CAATCTGAATTCCGGTCTCCC
# DNA 2: TGGTGGCTACGACGGGATT
# B2: GAUCAUC (DNA:RNA)
# RNA: B1 RNA with U26A, C27U, A28C, C29A, C30U, G31C
# DNA 1: CAATCTGAATTCCGGTCTCCC
# DNA 2: TGGTGGCTACGACGGGATT
# B3: CUUUAAG (DNA:RNA)
# RNA: B1 RNA with G25C, C27U, A28U, C29A, C30A
# DNA 1: CAATCTGAATTCCGGTCTCCC
# DNA 2: TGGTGGCTACGACGGGATT
# B4: UUUCGCG (DNA:RNA)
# RNA: B1 RNA with G25U, C27U, A28C, C29G
# DNA 1: CAATCTGAATTCCGGTCTCCC
# DNA 2: TGGTGGCTACGACGGGATT
# B5: CAUUUCC (DNA:RNA)
# RNA: B1 RNA with G25C, U26A, C27U, A28U, C29U, G31C
# DNA 1: CAATCTGAATTCCGGTCTCCC
# DNA 2: TGGTGGCTACGACGGGATT
# B6: GGGCAGA (DNA:RNA)
# RNA: B1 RNA with U26G, C27G, A28C, C29A, C30G, G31A
# DNA 1: CAATCTGAATTCCGGTCTCCC
# DNA 2: TGGTGGCTACGACGGGATT
# B7: AAUGCUC (DNA:RNA)
# RNA: B1 RNA with G25A, U26A, C27U, A28G, C30U, G31C
# DNA 1: CAATCTGAATTCCGGTCTCCC
# DNA 2: TGGTGGCTACGACGGGATT
# B8: UUUGCGA (DNA:RNA)
# RNA: B1 RNA with G25U, C27U, A28G, C30G, G31A
# DNA 1: CAATCTGAATTCCGGTCTCCC
# DNA 2: TGGTGGCTACGACGGGATT
# B9: GUGUGCU (DNA:RNA)
# RNA: B1 RNA with C27G, A28U, C29G, G31U
# DNA 1: CAATCTGAATTCCGGTCTCCC
# DNA 2: TGGTGGCTACGACGGGATT
# B10: GAUGACU (DNA:RNA)
# RNA: B1 RNA with U26A, C27U, A28G, C29A, G31U
# DNA 1: CAATCTGAATTCCGGTCTCCC
# DNA 2: TGGTGGCTACGACGGGATT
# B11: GCCUUAU (DNA:RNA)
# RNA: B1 RNA with U26C, A28U, C29U, C30A, G31U
# DNA 1: CAATCTGAATTCCGGTCTCCC
# DNA 2: TGGTGGCTACGACGGGATT
# B12: GGAACCU (DNA:RNA)
# RNA: B1 RNA with U26G, C27A, G31U
# DNA 1: CAATCTGAATTCCGGTCTCCC
# DNA 2: TGGTGGCTACGACGGGATT
# B13: CCCCAGU (DNA:RNA)
# RNA: B1 RNA with G25C, U26C, A28C, C29A, C30G, G31U
# DNA 1: CAATCTGAATTCCGGTCTCCC
# DNA 2: TGGTGGCTACGACGGGATT
# B14: ACGCCUG (DNA:RNA)
# RNA: B1 RNA with G25A, U26C, C27G, A28C, C30U
# DNA 1: CAATCTGAATTCCGGTCTCCC
# DNA 2: TGGTGGCTACGACGGGATT
# B15: UCUAAGA (DNA:RNA)
# RNA: B1 RNA with G25U, U26C, C27U, C29A, C30G, G31A
# DNA 1: CAATCTGAATTCCGGTCTCCC
# DNA 2: TGGTGGCTACGACGGGATT
# B16: AGACCUC (DNA:RNA)
# RNA: B1 RNA with G25A, U26G, C27A, A28C, C30U, G31C
# DNA 1: CAATCTGAATTCCGGTCTCCC
# DNA 2: TGGTGGCTACGACGGGATT
# B17: AUAUCUA (DNA:RNA)
# RNA: B1 RNA with G25A, C27A, A28U, C30U, G31A
# DNA 1: CAATCTGAATTCCGGTCTCCC
# DNA 2: TGGTGGCTACGACGGGATT
# B18: CUGCGGU (DNA:RNA)
# RNA: B1 RNA with G25C, C27G, A28C, C29G, C30G, G31U
# DNA 1: CAATCTGAATTCCGGTCTCCC
# DNA 2: TGGTGGCTACGACGGGATT
# B19: CUCAGGG (DNA:RNA)
# RNA: B1 RNA with G25C, C29G, C30G
# DNA 1: CAATCTGAATTCCGGTCTCCC
# DNA 2: TGGTGGCTACGACGGGATT
# B20: CCGUAUC (DNA:RNA)
# RNA: GGGAGACCGGAAUUCAGAUUGUCCCCGUAUCUUAAAUCCCGUCGUAGCCACCA
# DNA 1: CAATCTGAATTCCGGTCTCCC
# DNA 2: TGGTGGCTACGACGGGATT
# B21: UGAGUUA (DNA:RNA)
# RNA: B20 RNA with C25U, C26G, G27A, U28G, A29U, C31A
# DNA 1: CAATCTGAATTCCGGTCTCCC
# DNA 2: TGGTGGCTACGACGGGATT
# B22: UUCAAAG (DNA:RNA)
# RNA: B1 RNA with G25U, C29A, C30A
# DNA 1: CAATCTGAATTCCGGTCTCCC
# DNA 2: TGGTGGCTACGACGGGATT
# B23: UCGUCGG (DNA:RNA)
# RNA: B20 RNA with C25U, A29C, U30G, C31G
# DNA 1: CAATCTGAATTCCGGTCTCCC
# DNA 2: TGGTGGCTACGACGGGATT
# B24: AACCGGC (DNA:RNA)
# RNA: B20 RNA with C25A, C26A, G27C, U28C, A29G, U30G
# DNA 1: CAATCTGAATTCCGGTCTCCC
# DNA 2: TGGTGGCTACGACGGGATT
# B25: UGCAACG (DNA:RNA)
# RNA: B1 RNA with G25U, U26G, C29A
# DNA 1: CAATCTGAATTCCGGTCTCCC
# DNA 2: TGGTGGCTACGACGGGATT
# B26: GUGUUGG (DNA:RNA)
# RNA: B1 RNA with C27G, A28U, C29U, C30G
# DNA 1: CAATCTGAATTCCGGTCTCCC
# DNA 2: TGGTGGCTACGACGGGATT
# B27: CUCGUAA (DNA:RNA)
# RNA: B1 RNA with G25C, A28G, C29U, C30A, G31A
# DNA 1: CAATCTGAATTCCGGTCTCCC
# DNA 2: TGGTGGCTACGACGGGATT
# B28: CACUCAU (DNA:RNA)
# RNA: B20 RNA with C26A, G27C, A29C, U30A, C31U
# DNA 1: CAATCTGAATTCCGGTCTCCC
# DNA 2: TGGTGGCTACGACGGGATT
# B29: UGUAUAC (DNA:RNA)
# RNA: B20 RNA with C25U, C26G, G27U, U28A, A29U, U30A
# DNA 1: CAATCTGAATTCCGGTCTCCC
# DNA 2: TGGTGGCTACGACGGGATT
# B30: UUAACAG (DNA:RNA)
# RNA: B1 RNA with G25U, C27A, C30A
# DNA 1: CAATCTGAATTCCGGTCTCCC
# DNA 2: TGGTGGCTACGACGGGATT
# B31: ACAGGAC (DNA:RNA)
# RNA: B20 RNA with C25A, G27A, U28G, A29G, U30A
# DNA 1: CAATCTGAATTCCGGTCTCCC
# DNA 2: TGGTGGCTACGACGGGATT
# Molecular target: T1, RBFOX1 RRM RbFoxmut (Fox-RRM*)
# Assay: EMSA; HiTS-Eq, 1 nM pool, 10 min; buffer printed only for the single-RNA assays: 10 mM Tris pH 7.5, 150 mM NaCl, 3.4 mM EDTA, 0.001% NP-40, 30 C
# Conditions: tags: His6 N-terminal (pET28a); label: 5' 32P
# Outline: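 A pool of RNA with 7 randomized nucleotides, 5′-radiolabelled and with DNA-annealed flanks, was equilibrated at 1 nM for 10 min in 50 µL with purified RbFox RRM, wild type or mutant, across increasing protein concentrations. Free RNA was separated by 8% native PAGE, excised, reverse-transcribed, barcoded by PCR and sequenced. Relative association constants were obtained from read-count changes of each RNA species versus the control reaction and normalised to the cognate motif.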
row,Binder,binding signal
1,B1,0.0833 KA relative to UGCAUGU
2,B2,0.04 KA relative to UGCAUGU
3,B3,0.16 KA relative to UGCAUGU
4,B4,0.136 KA relative to UGCAUGU
5,B5,0.0842 KA relative to UGCAUGU
6,B6,0.106 KA relative to UGCAUGU
7,B7,0.0768 KA relative to UGCAUGU
8,B8,0.0864 KA relative to UGCAUGU
9,B9,0.126 KA relative to UGCAUGU
10,B10,0.0427 KA relative to UGCAUGU
11,B11,0.082 KA relative to UGCAUGU
12,B12,0.137 KA relative to UGCAUGU
13,B13,0.0863 KA relative to UGCAUGU
14,B14,0.124 KA relative to UGCAUGU
15,B15,0.0938 KA relative to UGCAUGU
16,B16,0.0625 KA relative to UGCAUGU

row,Binder,binding signal
1,B17,0.124 KA relative to UGCAUGU
2,B18,0.127 KA relative to UGCAUGU
3,B19,0.0739 KA relative to UGCAUGU
4,B20,0.163 KA relative to UGCAUGU
5,B21,0.102 KA relative to UGCAUGU
6,B22,0.104 KA relative to UGCAUGU
7,B23,0.129 KA relative to UGCAUGU
8,B24,0.0987 KA relative to UGCAUGU
9,B25,0.107 KA relative to UGCAUGU
10,B26,0.108 KA relative to UGCAUGU
11,B27,0.136 KA relative to UGCAUGU
12,B28,0.112 KA relative to UGCAUGU
13,B29,0.114 KA relative to UGCAUGU
14,B30,0.0772 KA relative to UGCAUGU
15,B31,0.0906 KA relative to UGCAUGU
